The campaign covered roughly 310,000 compounds. About 2,200 (0.71%) showed an effect of 50% or more. The effect is printed as a negative number. Some of the results follow.

The target in this assay is human ether-à-go-go-related gene (hERG) potassium channel (human, UniProt Q12809). Nature of the assay: primary screen, population patch clamp on CHO cells stably expressing hERG.
Sequence of human ether-à-go-go-related gene (hERG) potassium channel (Q12809 whole entry, looked up): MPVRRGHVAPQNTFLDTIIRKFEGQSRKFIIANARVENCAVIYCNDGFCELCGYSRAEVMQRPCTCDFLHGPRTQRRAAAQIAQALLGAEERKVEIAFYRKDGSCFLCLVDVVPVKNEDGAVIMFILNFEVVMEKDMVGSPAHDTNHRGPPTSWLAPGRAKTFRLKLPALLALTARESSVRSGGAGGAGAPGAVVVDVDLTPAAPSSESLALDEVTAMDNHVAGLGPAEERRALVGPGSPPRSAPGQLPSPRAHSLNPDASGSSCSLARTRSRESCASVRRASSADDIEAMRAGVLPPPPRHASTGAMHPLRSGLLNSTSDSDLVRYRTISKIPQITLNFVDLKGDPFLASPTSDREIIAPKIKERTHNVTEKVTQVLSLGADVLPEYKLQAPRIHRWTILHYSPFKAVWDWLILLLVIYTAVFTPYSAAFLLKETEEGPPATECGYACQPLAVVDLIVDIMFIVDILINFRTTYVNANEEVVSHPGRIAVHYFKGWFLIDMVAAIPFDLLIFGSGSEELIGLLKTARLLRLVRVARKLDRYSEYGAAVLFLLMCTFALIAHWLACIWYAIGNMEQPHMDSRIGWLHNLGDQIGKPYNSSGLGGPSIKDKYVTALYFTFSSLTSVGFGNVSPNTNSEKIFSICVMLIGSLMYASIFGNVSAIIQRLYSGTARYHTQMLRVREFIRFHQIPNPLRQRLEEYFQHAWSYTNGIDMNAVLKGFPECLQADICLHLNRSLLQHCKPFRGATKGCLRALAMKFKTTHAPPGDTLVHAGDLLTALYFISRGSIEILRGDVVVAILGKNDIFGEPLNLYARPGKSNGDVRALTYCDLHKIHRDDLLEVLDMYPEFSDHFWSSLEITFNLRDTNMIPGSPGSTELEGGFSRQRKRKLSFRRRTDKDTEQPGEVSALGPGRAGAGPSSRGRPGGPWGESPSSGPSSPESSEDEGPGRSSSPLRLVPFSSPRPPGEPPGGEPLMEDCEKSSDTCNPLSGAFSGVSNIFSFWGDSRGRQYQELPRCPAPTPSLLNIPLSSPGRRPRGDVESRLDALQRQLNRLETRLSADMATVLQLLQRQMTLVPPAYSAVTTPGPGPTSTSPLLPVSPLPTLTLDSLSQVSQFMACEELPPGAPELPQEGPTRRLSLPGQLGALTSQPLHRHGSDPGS
Consider `CN(C)C(=O)COc1ccc(Oc2ccccc2)cc1`, for which the “hERG current change (%, negative = inhibition) at 1uM” value is 1.77%. To `COCCNC(=O)CN(Cc1ccc(F)cc1)C(=O)CCC(=O)Nc1nccs1` belongs -0.953%; to `CCN(CC(=O)NCc1ccc(F)cc1)C(=O)/C=C/c1ccco1`, -4.75%; to `Cc1ccccc1CNC(=O)Cc1cccs1`, 4.63%. Turning to `CCc1ccc(C2NC(c3ccc(CC)cc3)C([N+](=O)[O-])C(C)(C)C2[N+](=O)[O-])cc1` (centres unmarked), the “hERG current change (%, negative = inhibition) at 1uM” value is on record as 4.8%. To `Nc1ccccc1C(=O)c1ccccc1` belongs 5.55%; to `CCc1ccccc1NC(=O)[C@@H]1CCC(=O)N1C1OC(=O)c2ccccc21` (some centres unmarked), 15.5%; to `CC(=O)N1CCc2ccccc2C1CC(=O)O` (centres unmarked), 6.78%. With `CC(=O)N1CCN(C(=O)c2ccc(NS(=O)(=O)c3ccc4[nH]c(=O)[nH]c4c3)cc2)CC1`, the “hERG current change (%, negative = inhibition) at 1uM” value was 9.21%. To `Cc1ccc(CNc2nc(N)c([N+](=O)[O-])c(Nc3ccc(F)cc3)n2)cc1` belongs -2.55%; to `COc1cccc(/C=N/NC(=O)Cn2nc([N+](=O)[O-])cc2C)c1`, 9.59%.

With `O=C(c1cc(-c2ccco2)on1)N1CCOCC1`, the “hERG current change (%, negative = inhibition) at 1uM” value is 6.35%. To `CC(=O)Nc1ccc2nc(NC(=O)COc3ccc(C)cc3)sc2c1` belongs 5.97%; to `O=C(O)CCN1C(=O)CC2(CCCCC2)C1=O`, 12.9%. In the case of `O=C(CCNS(=O)(=O)c1cccc2nonc12)NC1CCCCC1`, the “hERG current change (%, negative = inhibition) at 1uM” value was determined as 12.4%. To `Fc1ccc(-n2nnc(-c3cccnc3Cl)n2)cc1` belongs 18.5%; to `CCOc1ccccc1NC(=O)CN(C)S(=O)(=O)c1cccc2nsnc12`, 4.06%. To `Cc1ccc(S(=O)(=O)N2CCC(C(=O)NCCCN3CCOCC3)CC2)cc1C` belongs 7.71%. For `CCOc1ccccc1C(=O)Nc1nccs1`, the “hERG current change (%, negative = inhibition) at 1uM” value amounted to 5.69%. The result for `O/C(=C\c1ccc2ccccc2n1)c1ccc(O)cc1O` reads 1.97%. For `O=C(CSCC(=O)N1CCCCC1)Nc1nc(-c2cccs2)cs1`, the “hERG current change (%, negative = inhibition) at 1uM” value came to 5.94%. Consider `O=S(=O)(c1ccccc1)c1nc(-c2cccs2)oc1NCc1cccnc1`, for which the “hERG current change (%, negative = inhibition) at 1uM” value was determined as 3.56%. To `CCOC(=O)C1CCN(C(=O)CN(c2cc(OC)ccc2OC)S(=O)(=O)c2ccccc2)CC1` belongs 10.9%. The result for `COc1ccc(-n2nc(C(=O)NCC(=O)N3CC(C)CC(C)C3)c3ccccc3c2=O)cc1OC` (centres unmarked) reads 6.93%; that for `CSc1ccccc1C(=O)N(CC1CCCO1)c1c(N)n(Cc2ccccc2)c(=O)[nH]c1=O` (centres unmarked), 2.31%. To `Cc1c(C(=O)N2CCOCC2)oc2c1C(=O)CC(C)(C)C2` belongs -5.92%. `O=C(c1csc2c1CCCC2)N1CCN(c2ncccn2)CC1`: the “hERG current change (%, negative = inhibition) at 1uM” value was determined as 1.96%. As to `CCC/C=C(\CCC)C(NC(=O)c1ccc(C(=O)OC)cc1)c1ccc(C(=O)OC)cc1` (centres unmarked), the “hERG current change (%, negative = inhibition) at 1uM” value is given as 12.2%. On to `O=C(NC1CCCC1)C(c1ccccc1)N(Cc1ccc2c(c1)OCO2)C(=O)Cc1cccs1` (centres unmarked), for which the “hERG current change (%, negative = inhibition) at 1uM” value is recorded as 10.2%. To `O=C(CSc1ncnc2ccccc12)NCCc1ccccc1` belongs 3.1%; to `Fc1cccc(Nc2nc(-c3ccncc3)nc3ccccc23)c1`, 17.8%; to `Cc1ccc(NC(=O)c2sc(=S)n(-c3cc(C)ccc3F)c2N)cc1`, 6.25%. The result for `O=C(O)CCCN1C(=O)c2cccc3cccc(c23)C1=O` reads 6.67%; that for `CCOc1ccccc1NC(=S)N(CCOC)C1CCN(C(C)=O)CC1`, 2.85%.

Consider `CC(Oc1ccc(Br)cc1)C(=O)Nc1nc(-c2ccccn2)cs1` (centres unmarked), for which the “hERG current change (%, negative = inhibition) at 1uM” value amounted to 12.9%. To `O=c1[nH]cnc2sc3c(c12)CN(Cc1ccccc1)CC3` belongs 9.54%. To `CCN(c1ccc(NC(=O)c2ccc(Cl)nc2)cc1)C(C)C` belongs 12.2%; to `CCN(CC)S(=O)(=O)c1cccc(C(=O)OCC(=O)NCCN2C(=O)CSC2=O)c1`, 3.42%; to `COc1ccc(C2(O)CCN(C(=O)NC3CCCCC3)CC2)cc1`, 12.2%. With `O=C(C1=C(Nc2ccccc2)c2ccccc2S(=O)(=O)N1)c1ccccc1`, the “hERG current change (%, negative = inhibition) at 1uM” value was found to be 12.9%. To `CN(C)S(=O)(=O)c1cc(NC(=O)COC(=O)Cc2ccc(Br)cc2)ccc1Cl` belongs 7.98%; to `Cn1c(Cn2nnc3ccccc32)nnc1SCC(=O)Nc1ccc2c(c1)OCO2`, 8.02%.

Consider `CN(CC(=O)NC1CCN(Cc2ccccc2)CC1)S(=O)(=O)c1ccc2c(c1)c(=O)n(C)c(=O)n2C`, for which the “hERG current change (%, negative = inhibition) at 1uM” value came to 7.41%.

Consider `CC(C)OC(=O)c1ccc(COC(=O)CNC(=O)c2ccco2)cc1`, for which the “hERG current change (%, negative = inhibition) at 1uM” value turned out to be 8.6%.

Values taken from article PMC4336329 (PLoS ONE, 2015).
